# Screen size: about 350,000 compounds; about 700 (0.2%) were called active. Calls follow the shape of the dose curve; as a rule, active = well fitted inhibition curve with a large enough effect; inconclusive = small, poorly fitted or top-dose-only effect; inactive = flat fitted curve, though single readings scatter. The entries are a selection whose mix differs from that of the whole data set. Some structures have more than one record in an assay (separate samples or runs), and their calls can disagree.
# Molecular target: RecQ-like DNA helicase BLM (Homo sapiens) (UniProt P54132)
# Sequence of UniProt P54132 (P54132 whole entry, looked up): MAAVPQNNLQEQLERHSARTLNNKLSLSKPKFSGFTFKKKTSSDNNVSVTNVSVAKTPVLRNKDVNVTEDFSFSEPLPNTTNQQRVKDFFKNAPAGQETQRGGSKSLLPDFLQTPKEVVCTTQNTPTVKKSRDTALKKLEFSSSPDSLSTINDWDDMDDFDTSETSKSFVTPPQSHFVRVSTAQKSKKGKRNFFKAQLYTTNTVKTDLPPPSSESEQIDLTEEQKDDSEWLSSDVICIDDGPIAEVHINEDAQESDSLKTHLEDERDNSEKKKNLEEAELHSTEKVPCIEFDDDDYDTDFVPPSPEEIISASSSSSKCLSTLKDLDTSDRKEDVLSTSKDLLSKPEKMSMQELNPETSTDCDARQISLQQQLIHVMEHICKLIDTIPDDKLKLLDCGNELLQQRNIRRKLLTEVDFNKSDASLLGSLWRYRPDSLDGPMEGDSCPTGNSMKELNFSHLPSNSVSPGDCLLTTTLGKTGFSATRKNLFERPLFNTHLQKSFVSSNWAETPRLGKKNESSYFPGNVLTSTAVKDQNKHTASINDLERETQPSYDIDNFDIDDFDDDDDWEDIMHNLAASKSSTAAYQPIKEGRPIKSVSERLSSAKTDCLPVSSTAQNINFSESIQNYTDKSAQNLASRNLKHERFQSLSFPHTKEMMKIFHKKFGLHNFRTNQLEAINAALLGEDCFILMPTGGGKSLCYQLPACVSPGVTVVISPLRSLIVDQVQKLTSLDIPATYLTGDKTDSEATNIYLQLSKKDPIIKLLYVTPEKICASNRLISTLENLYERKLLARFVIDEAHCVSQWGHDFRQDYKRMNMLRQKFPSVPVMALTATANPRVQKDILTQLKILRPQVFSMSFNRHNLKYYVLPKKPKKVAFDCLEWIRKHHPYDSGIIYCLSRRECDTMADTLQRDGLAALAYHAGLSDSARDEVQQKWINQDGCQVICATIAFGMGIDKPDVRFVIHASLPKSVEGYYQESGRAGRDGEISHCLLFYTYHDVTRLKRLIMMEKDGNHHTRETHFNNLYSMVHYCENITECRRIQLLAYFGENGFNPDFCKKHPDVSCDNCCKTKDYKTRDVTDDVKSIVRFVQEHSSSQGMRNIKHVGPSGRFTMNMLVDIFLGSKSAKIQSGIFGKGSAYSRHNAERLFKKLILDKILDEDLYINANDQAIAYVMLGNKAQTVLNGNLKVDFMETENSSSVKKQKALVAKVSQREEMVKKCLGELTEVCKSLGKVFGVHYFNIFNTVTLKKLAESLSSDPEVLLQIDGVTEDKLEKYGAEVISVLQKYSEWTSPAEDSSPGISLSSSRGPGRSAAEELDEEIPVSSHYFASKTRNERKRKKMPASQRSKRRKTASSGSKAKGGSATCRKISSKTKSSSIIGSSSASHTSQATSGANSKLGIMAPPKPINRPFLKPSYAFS
# Test: qHTS Assay for Inhibitors of Bloom's syndrome helicase (BLM); also: nearly all actives have a fitted effect of over 35% in size;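 as to activity change, negative = inhibition: plate controls were vehicle for no effect and no enzyme for full effect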
# Conditions: recombinant BLM DNA unwinding, fluorescence dequenching; series mostly up to 56.1 µM; activity change, negative = inhibition: at the top concentration
# Potency is read from the fitted curve at half-maximal effect.
SMILES,Potency,"activity change, negative = inhibition"
CC(C)(C)NCC(O)c1cc(O)cc(O)c1 (stereo not given),inactive,
CC[C@@]1(O)CC2CN(CCc3c([nH]c4ccccc34)[C@](C(=O)OC)(c3cc4c(cc3OC)N(C)C3[C@@](O)(C(=O)OC)C(OC(C)=O)[C@]5(CC)C=CCN6CC[C@@]43C65)C2)C1 (stereo not given in full),,inactive: -14.2%
CC/C(=C(\c1ccccc1)c1ccc(OCCN(C)C)cc1)c1ccccc1,inactive,
O=C(O)c1cccnc1C(=O)O,inactive,
CN1CCC[C@@H]1CCO[C@](C)(c1ccccc1)c1ccc(Cl)cc1,inactive,
N#Cc1c2nc3ccccc3nc2n2cc(NC(=O)c3ccc(F)cc3)ccc12,active: 12.6 µM,
COCCc1ccc(OCC(O)CNC(C)C)cc1 (stereo not given),inactive,
COc1ccc(N2Cc3cccc(C(=O)O)c3C2=O)cc1,active: 15.8 µM,
CCC(C)C(=O)OC1CCC=C2C=CC(C)C(CCC3CC(O)CC(=O)O3)[C@@H]21 (stereo not given in full),,inactive: -5.58%
Fc1cc(F)c2nc(Nc3nc4cc5c(cc4s3)OCO5)sc2c1,active: 10 µM,
O=C(O)C1(C(=O)O)CCC1.[NH2-].[NH2-].[Pt+2],,inactive: -5.86%
CCCSC1=N/C(=C\C=C\c2ccco2)C(=O)S1,active: 20 µM,
C=C[C@@]1(C)CC(=O)[C@@]2(O)[C@@]3(C)[C@@H](O)CCC(C)(C)[C@@H]3[C@H](O)[C@H](OC(C)=O)[C@@]2(C)O1,,inactive: 3.63%
Nc1ncnc2c1ncn2C1CCCO1 (stereo not given),,inactive: -1.67%
N[C@@H](Cc1ccc(O)c(I)c1)C(=O)O,,inactive: 1.78%
NC(Cc1c[nH]c2ccccc12)C(=O)O (stereo not given),,inactive: 2.5%
Nc1nc(Nc2ccccc2)nc2c1ncn2[C@@H]1O[C@@H](CO)[C@H](O)[C@H]1O,,inactive: -4.28%
N[C@H](C(=O)N[C@@H]1C(=O)N2C(C(=O)O)=C(Cl)CS[C@@H]12)c1ccccc1,inactive,
CN(C)c1ccc(C(=C2C=CC(=[N+](C)C)C=C2)c2ccc(N(C)C)cc2)cc1,,inactive: -29.6%
Oc1ccc(NCc2ccccc2OCc2ccccc2)cc1,,inactive: -11%
CC(=O)OCC(=O)[C@@]1(O)CC[C@H]2[C@@H]3CCC4=CC(=O)CC[C@]4(C)[C@@H]3C(=O)C[C@@]21C,,inactive: 4.86%
CC(C)(C)c1ccc(C(O)CCCN2CCC(C(O)(c3ccccc3)c3ccccc3)CC2)cc1 (stereo not given),inactive,
CCCN1C[C@H](CSC)C[C@H]2c3cccc4[nH]cc(c34)C[C@@H]21,,inactive: 0.436% [at 21.4 µM]
Nc1c(N=Nc2ccc(-c3ccc(N=Nc4cc(S(=O)(=O)O)c5ccccc5c4N)cc3)cc2)cc(S(=O)(=O)O)c2ccccc12,active: 3.98 µM,

SMILES,Potency,"activity change, negative = inhibition"
CCCCNc1c(C(=O)OCC)c(C)nc2c1cnn2CC,inactive,
COC1=C(N)C(=O)c2nc(-c3nc(C(=O)O)c(C)c(-c4ccc(OC)c(OC)c4O)c3N)ccc2C1=O,active: 3.55 µM,
COCCOC(=O)C1=C(C)NC(C)=C(C(=O)OC(C)C)[C@H]1c1cccc([N+](=O)[O-])c1,,inactive: -6.31% [at 21.4 µM]
CC[N+](CC)(CC)CC(=O)Nc1c(C)cccc1C,inactive,
CC[C@H](C)[C@H]1O[C@]2(CC[C@@H]1C)C[C@@H]1C[C@@H](C/C=C(\C)[C@H](O[C@@H]3C[C@H](OC)[C@H](O[C@@H]4C[C@H](OC)[C@@H](O)[C@H](C)O4)[C@H](C)O3)[C@@H](C)/C=C/C=C3\CO[C@@H]4[C@H](O)C(C)=C[C@@H](C(=O)O1)[C@]34O)O2,,inactive: -2.21%
NC(N)=Nc1nc(CSCC/C(N)=N/S(N)(=O)=O)cs1,inactive,
CC1=C(/C=C/C(C)=C/C=C/C(C)=C\C(=O)O)C(C)(C)CCC1,inactive,
CCCCN(C)C1=CC2=CC(=C(C#N)C#N)CCC2CC1 (stereo not given),active: 12.6 µM,
O=S(=O)(O)O,,inactive: -1.47%
C/C(=C\c1ccc(C(=O)O)cc1)c1ccc2c(c1)C(C)(C)CCC2(C)C,inactive,
C[C@]12C=CC(=O)C=C1CC[C@@H]1[C@H]3C[C@@H](O)[C@](O)(C(=O)CO)[C@@]3(C)C[C@H](O)[C@]12F,,inactive: 2.94% [at 21.4 µM]
Cn1nc(-c2ccccn2)nc2c(=O)n(C)c(=O)nc1-2,active: 1 µM,
CN(Cc1cnc2nc(N)nc(N)c2n1)c1ccc(C(=O)N[C@@H](CCC(=O)O)C(=O)O)cc1,inactive,
CCOc1ccc2nc3cc(N)ccc3c(N)c2c1,,inactive: -22.7%
CO/N=C(/C(=O)NC1C(=O)N2C(C(=O)O)=C(CSc3nc(=O)c(O)nn3C)CSC12)c1csc(N)n1 (stereo not given),inactive,
COc1cc2c(CCNC(C)=O)c[nH]c2cc1Cl,,inactive: -3.77%
O=C(O)C1=CCCN(CCON=C(c2ccccc2)c2ccccc2)C1,,inactive: 2.2%
O=C(COC(=O)c1c2c(nc3ccccc13)/C(=C/c1ccco1)CC2)NC1CCCC1,active: 8.91 µM,
O=C1NC(=Nc2ccc3ccccc3c2)S/C1=C/c1ccco1,active: 17.8 µM,
N#C/C(=C\c1ccc(O)c(O)c1)C(=O)NCc1ccccc1,,inactive: -16.3%
C[C@@]12CCC3c4ccc(O)cc4CCC3C1CCC2O (stereo not given in full),,inactive: 3.1%
CC(N=C(NC#N)Nc1ccncc1)C(C)(C)C (stereo not given),inactive,
O=C1C=C(NCCN2CCOCC2)C(=O)c2cnccc21,active: 25.1 µM,
Cc1ccc(-c2nn(-c3ccccc3)cc2/C=C2\SC(=S)N(CCCCCC(=O)O)C2=O)o1,active: 28.2 µM,

SMILES,Potency,"activity change, negative = inhibition"
CC1=C(/C=C/C(C)=C\C=C\C(C)=C\C(=O)O)C(C)(C)CCC1,inactive,
O=C(c1ccccc1)c1ccc2n1CC[C@H]2C(=O)O,,inactive: -2.27% [at 21.4 µM]
O=C(CSc1ccc(-c2ccco2)nn1)c1ccccc1,active: 25.1 µM,
Brc1ccc2c(c1)OCCOCCOc1cc(Br)ccc1OCCOCCOCCO2,active: 15.8 µM,
Cc1ccc2nc(/C(C#N)=C/c3ccc(-c4cccc([N+](=O)[O-])c4)o3)[nH]c2c1,active: 22.4 µM,
CC(=O)O[C@@H](C)C[N+](C)(C)C,,inactive: 0.857% [at 21.4 µM]
CCCCCCCCCCCCC/C=C/[C@@H](O)[C@@H](N)CO,,inactive: -1.45%
O=C(O)CP(=O)(O)O,,inactive: -6.1%
Cn1ccc2cc3c(cc21)CCN3C(=O)Nc1cccnc1,,inactive: -22.1%
Cc1cn([C@H]2C[C@H](N=[N+]=[N-])[C@H](CO)O2)c(=O)[nH]c1=O,,inactive: 2.43%
NCCNC(=O)c1ccc(Cl)cc1,,inactive: 3.64%
COc1cc(/C=C2\CCc3c2nc2ccccc2c3C(=O)O)cc(OC)c1OC,active: 14.1 µM,
O=C(CCl)Nc1ccccc1Sc1ccccc1,active: 8.91 µM,
NS(=O)(=O)c1cccc2c1c([N+](=O)[O-])cc1[nH]c(=O)c(=O)[nH]c12,inactive,
O=C(c1ccccc1)c1ccc2n1CCC2C(=O)O (stereo not given),inactive,
O=[N+]([O-])c1cccc2c[nH]nc12,,inactive: -27.2%
O=C1NC(=O)C(c2ccccc2)(c2ccccc2)N1,inactive,
N#Cc1sc2nc(-c3ccccc3)cc(-c3ccco3)c2c1N,active: 3.98 µM,
CCCOc1ccccc1-c1nc2n[nH]nc2c(=O)[nH]1,inactive,
Cc1oc(-c2ccc(Cl)cc2)cc1-c1nn2c(-c3ccoc3C)nnc2s1,active: 10 µM,
C/C=C\C=C/C(=O)Nc1cccc(C2=NOC3(C2)C[C@@H](C(N)=O)N(C(=O)/C=C/C=C\C)C3)c1 (stereo not given in full),active: 10 µM,
C[C@]12CCC3c4ccc(O)cc4CCC3C1CCC2=O (stereo not given in full),,inactive: -1.66%
COc1cccc(-n2c(SCc3cc(=O)oc4cc(O)c(O)cc34)nc3ccccc3c2=O)c1,active: 10 µM,
COc1cc(OC)c(OC)cc1/C=N/Nc1ncnc2c1[nH]c1ccccc12,active: 22.4 µM,

SMILES,Potency,"activity change, negative = inhibition"
CCN1CCC[C@@H]1CNC(=O)c1cc(S(N)(=O)=O)ccc1OC,,inactive: -1.79%
CCc1nn2c(=O)cc(COc3ccc(/C=C4\C(=N)N5N=C(C)SC5=NC4=O)cc3)nc2s1,active: 12.6 µM,
Cc1cc(C)n(Cc2ccc(C(=O)N/N=C/c3ccc(-c4ccc([N+](=O)[O-])cc4)o3)o2)n1,active: 15.8 µM,
CC#C[C@]1(O)CC[C@H]2[C@@H]3CCC4=CC(=O)CCC4=C3[C@@H](c3ccc(N(C)C)cc3)C[C@@]21C,inactive,
COc1ccc(Cl)cc1C(=O)NCCc1ccc(S(=O)(=O)NC(=O)NC2CCCCC2)cc1,inactive,
O/C=c1\ccc2cccc3nc(C(F)(F)F)nc1c23,active: 14.1 µM,
O=C(CSc1nnc(-c2ccco2)c(-c2ccco2)n1)Nc1ccccc1,active: 14.1 µM,
O=C(COc1ccc([N+](=O)[O-])cc1)Nc1nnc(-c2cccnc2)s1,active: 15.8 µM,
CCCCn1c(NC(=O)c2ccccc2)c(C#N)c2nc3ccccc3nc21,active: 1.58 µM,
O=C(O)c1ccc(COc2ccccc2/C=C2/NC(=O)N(c3cccc(Cl)c3)C2=O)cc1,active: 20 µM,
C1CCC(N=C(NC23CC4CC(CC(C4)C2)C3)N2CCOCC2)CC1,,inactive: -1.16%
COC(=O)[C@H]1[C@@H]2C[C@@H]3c4[nH]c5ccccc5c4CCN3C[C@H]2CC[C@H]1O,,inactive: 2.05%
CC(=O)S[C@H]1CC2=CC(=O)CC[C@@]2(C)[C@H]2CC[C@@]3(C)[C@H](CC[C@]34CCC(=O)O4)[C@@H]12,,inactive: -10.6% [at 21.4 µM]
O=C1CC[C@H](N2C(=O)c3ccccc3C2=O)C(=O)N1,inactive,
Cc1ccccc1Nc1cc2ccccc2c(=O)[nH]1,active: 28.2 µM,
CNCC(O)c1ccc(O)c(O)c1 (stereo not given),,inactive: -4.71%
CC(=O)O[C@@]1(C(C)=O)CCC2C3C=C(Cl)C4=CC(=O)C5CC5[C@@]4(C)C3CC[C@]21C (stereo not given in full),,inactive: -15.1%
O=C1S/C(=C\C=C\c2ccco2)C(=O)N1c1ccc(O)cc1,active: 25.1 µM,
CCCC1OC2CC3C4CCC5=CC(=O)C=CC5(C)C4C(O)CC3(C)C2(C(=O)CO)O1 (stereo not given),,inactive: 2.24%
O=C(NC1CC1)c1cc(-c2ccco2)nc2ccccc12,active: 14.1 µM,
CC(C)NCC(O)COc1ccc(CC(N)=O)cc1 (stereo not given),inactive,
Nc1c(C(=O)NCC2CCCO2)sc2nc3c(c(-c4ccco4)c12)CC/C3=C\c1ccco1 (stereo not given),active: 5.01 µM,
Oc1cc2c(cc1O)C(c1ccccc1)CNCC2 (stereo not given),,inactive: -16%
